Several values for one entry are separate records, joined by “and”; a condition that tells them apart may be missing. Equal entries are not always repeated. The whole screen tested about 390,000 compounds, of which about 930 (0.24%) were called active. The inconclusive results got no clear call from the source; some entries with a clear call stand among them for comparison. Calls come from the whole dose curve; as a rule, active = well fitted activation curve with a large enough effect; inconclusive = small, poorly fitted or top-dose-only effect; inactive = no such curve, though single readings can be large or run the other way. Potencies of inconclusive entries are doubtful fits and often do not repeat. Numbered stars: 1 amine (or outer) side, 2 acyl side, 3 side chain; on linkers, the order of the positions; unused ones are H or OH. Square brackets hold non-standard residues; d marks the D form. Peptide text beside a SMILES is read from it. X4 = CC[C@H](C)[C@H](OC(=O)[C@@H](C)[C@@H](CC)N[*:1])C(=O)[*:2]; X2 = CC(N[*:1])C(=O)C(C)(C)C(=O)[*:2]; NMeF = CN[C@@H](Cc1ccccc1)C(=O)O; NMeL = CN[C@@H](CC(C)C)C(=O)O; NMeV = CN[C@H](C(=O)O)C(C)C; NMeA = CN[C@@H](C)C(=O)O
Assay: qHTS for Suppressors of FUS Proteinopathy: Primary screen using FUS-linked yeast assay; note: nearly all actives have a fitted effect of over 55% in size;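 for growth rescue (activation): plate controls were DMSO vehicle for no effect and reference control for full effect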
Settings: S. cerevisiae FUS-expressing, OD600, 24 h; Potency: growth rescue; growth rescue (activation): at 76.6 µM (top of the series)
Summary of the method: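 S. cerevisiae expressing FUS from galactose induction served as the toxicity model. Growth after 24hr at 30C, read as absorbance at 600 nm, indicates suppression of toxicity; compounds dosed at several concentrations.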
Potency is the fitted concentration of half-maximal effect; tags give direction and shape of the fitted curve.

Structure (SMILES)	Potency	growth rescue (activation)
Cc1nc(-c2ccc(S(=O)(=O)Nc3cc(Cl)ccc3C)cc2)co1	inactive	–
O=C1NCC(c2ccccc2)C1C(=O)N/N=C\c1ccc(-c2cccc(Cl)c2Cl)o1 (stereo unspecified)	inconclusive: 22.4 µM [activator, partial curve, poor fit]	–
Cc1cccc(OCCSc2nncn2C)c1	inactive	–
CSc1nc(NCCOCCO)c2sc3nc(-c4ccco4)c4c(c3c2n1)CCC4	inconclusive: 31.6 µM [activator, single point]	–
CC(C)(C)c1ccc(OCCOc2ccc(C(C)(C)C)cc2NC=O)c(NC=O)c1	inconclusive: 35.5 µM [activator, single point]	–
CCCCNC(=O)C[C@H]1C[C@@]2(C(=O)OC)C(=C[C@H](C3CCCC3)O[C@@H]2C)N(CCc2ccc(OC)c(OC)c2)C1=O	inconclusive: 25.1 µM [activator, single point]	–
Cc1nc2ccc(NS(=O)(=O)c3ccccc3Cl)cc2s1	inactive	–
Cc1ccc(Cn2cc(CN3[C@H](CC(C)C)COc4cc(Br)ccc4S3(=O)=O)nn2)cc1	inactive	–
COc1cccc(C(=O)Nc2ccc3c(c2)OC[C@H](C)N(C(=O)C2CCCC2)C[C@@H](C)[C@@H](OC)CN(C)C3=O)c1	inconclusive: 8.91 µM [activator, partial curve, poor fit]	–
CC[C@H](C)[C@@H]1OC(=O)[C@@H](C)[C@@H](CC)NC(=O)[C@H](C)N(C)C(=O)C(C)(C)C(=O)C(C)NC(=O)[C@H](Cc2ccccc2)N(C)C(=O)[C@H](C(C)C)N(C)C(=O)CNC(=O)[C@H](CC(C)C)N(C)C(=O)CNC1=O (stereo partly specified) (cyclo(G[NMeL]G[NMeV][NMeF][X2][NMeA][X4]))	inconclusive: 15.8 µM [activator, partial curve, poor fit]	–
CCOCCCNC(=O)CN1CCN(S(=O)(=O)c2ccc3c(c2)CCC3)CC1	inactive	–
Cc1cc(C)c2cc(CN(CC3CCCO3)C(=S)NCc3ccco3)c(=O)[nH]c2c1 (stereo unspecified)	inconclusive: 50.1 µM [activator, single point]	–
CCOc1ccc(CCNC(=O)C2CCCN(S(=O)(=O)N(C)c3ccc(F)cc3)C2)cc1 (stereo unspecified)	inactive	–
CC(C)(C)OC(=O)N1CCC(N[C@@H](Cc2ccccc2)C(=O)NCCc2c[nH]c3ccccc23)(C(=O)NC2CCCCC2)CC1	inconclusive: 15.8 µM [activator, partial curve, poor fit]	–
COc1cccc(NC(=O)C2CCC(CNS(=O)(=O)c3ccc4c(c3)CCCC(=O)N4)CC2)c1 (stereo unspecified)	inactive	–
Cc1ccc(C)c(NC(=O)Cn2cc(C(=O)C3CC3)c3ccccc32)c1	inconclusive: 5.01 µM [activator, partial curve, poor fit]	–
CC1(C)Cc2c(C#N)c(N3CCN(C(=O)c4ccccc4)CC3)nc(Cc3ccccc3)c2CO1	inactive	–
COc1ccccc1CN(C)C(=O)C1CCCN(c2nc3ccccc3o2)C1 (stereo unspecified)	inactive	–
COc1ccc(Cc2nnc3n2N=C(c2cc4ccccc4o2)CS3)cc1OC	inconclusive: 44.7 µM [activator, single point]	–
CCOC(=O)c1cc(-c2ccc(OC)cc2)n(CCC(=O)NCCc2ccccc2)c1C	inconclusive: 20 µM [activator, partial curve, poor fit]	–
CCOC(=O)Cc1csc(/N=C/c2c(O)n(-c3ccccc3C(F)(F)F)c(=O)c3ccccc23)n1	inactive	–

Structure (SMILES)	Potency	growth rescue (activation)
O=C(CSc1ccccc1Cl)N1CCC(c2nc3ccccc3s2)CC1	inactive	–
COc1ccc(NC2c3ncccc3C(=O)N2Cc2cccs2)cc1 (stereo unspecified)	inactive	–
COc1ccc(/C=N/n2cc(-c3ccc(OC)cc3)nc2N)cc1	inconclusive: 50.1 µM [activator, single point]	–
Cc1ccc(C2c3[nH]c4ccccc4c3C[C@H]3C(=O)N(c4ccccc4C(=O)N4CCC[C@H]4C(=O)O)C(=O)N23)cc1 (stereo partly specified)	inconclusive: 15.8 µM [activator, partial curve]	–
COC(=O)c1ccccc1NC(=O)Cn1cnc2sc(C)c(S(=O)(=O)N3CCC(C)CC3)c2c1=O	inactive	–
CCCCN(CC)CCCNC(=O)Cn1nc(Cc2ccncc2)c2ccccc2c1=O	inactive	–
CCOc1ccc(C2C(=O)N(C3CCCCCC3)CC(=O)N2Cc2ccccc2)cc1OC (stereo unspecified)	inconclusive: 20 µM [activator, partial curve, poor fit]	–
COc1ccc(NC(=O)/C=C\C(=O)N(c2ccc(C(C)C)cc2)C(C(=O)NCc2ccco2)c2ccc(C)cc2)cc1 (stereo unspecified)	active: 4.47 µM	–
Cc1nc2ccccn2c(=O)c1NC(=O)c1cccc(F)c1	inactive	–
CC(=O)Oc1ccccc1Cn1c(C)c(C(=O)N(C)Cc2ccc(F)cc2)sc1=O	inactive	–
CC1=NN(/C(=N\c2nnc(C)s2)Nc2ccccc2)[C@H](c2cccc3ccccc23)S1	inconclusive: 44.7 µM [activator, partial curve, poor fit]	–
C=CCOc1ccc(C2C(C(=O)c3cccs3)=C(O)C(=O)N2c2nnc(C)s2)cc1 (stereo unspecified)	inconclusive: 35.5 µM [activator, partial curve, poor fit]	–
N#C/C(=N\Nc1cccc(C(F)(F)F)c1)C(=O)c1csc(-c2cccnc2)n1	inactive	–
C/C=C/C=C/C(=O)N1CC[C@]23c4ccccc4N[C@H]4N(C)c5cccc6c5[C@]42CCN([C@H]6C2OC2(C)C)[C@H]13 (stereo partly specified)	active: 15.8 µM	–
O=C(c1cnn(-c2cccc(F)c2)c1-n1cccc1)N1CCN(c2ccccc2F)CC1	inactive	–
COC(=O)C1=C(C)NC(C)=C(C(=O)OC)C1c1cn(-c2ccccc2)nc1-c1ccco1	inconclusive: 35.5 µM [activator, partial curve]	–
Cc1ccc(-c2nc3ccccc3[nH]2)cc1NC(=O)COc1ccccc1[N+](=O)[O-]	inactive	–
CC[C@@]12C(=O)N(c3cccc(F)c3)C(=O)N1[C@H](c1cccc(C)c1)[C@@H]1C(=O)N(Cc3ccccc3)C(=O)[C@@H]12	active: 31.6 µM	–
O=C(Oc1cccc2c(OC(=O)N3CCCC3)cccc12)N1CCCC1	inconclusive: 11.2 µM [activator, full curve, poor fit]	–
COc1ccc(-n2nc3c(N4CCC(C(=O)NCc5cccc(F)c5)CC4)nnc(C)c3c2C)cc1	inactive	–
O=C(Nc1ccc2nc(-c3cccs3)c(-c3cccs3)nc2c1)N1CCOCC1	inconclusive: 39.8 µM [activator, partial curve, poor fit]	–

Structure (SMILES)	Potency	growth rescue (activation)
C[C@H](CO)N1C[C@H](C)[C@@H](CN(C)S(=O)(=O)c2ccc(F)cc2)Oc2c(NC(=O)Nc3ccc4c(c3)OCO4)cccc2C1=O	inconclusive: 25.1 µM [activator, single point]	–
CCOC(=O)[C@]12CCCC=C1N(Cc1ccc(OC)cc1)C(=O)[C@@H]2CC(=O)N1CCSCC1	inconclusive: 4.47 µM [activator, full curve, poor fit]	–
COC(=O)CCC(=O)OC1(C)C(=O)C2=CN(c3ccccc3)C(c3ccc(OC)cc3)=CC2=C(Br)C1=O (stereo unspecified)	inconclusive: 31.6 µM [activator, single point]	–
COc1ccc(NC(=O)c2ccc3c(c2)N(Cc2cccc(Cl)c2)C(=O)c2ccccc2S3=O)cc1Cl (stereo unspecified)	inconclusive: 50.1 µM [activator, single point]	–
CCN(CC)C(=O)Cn1c(=O)n(-c2ccc(Cl)c(Cl)c2)c(=O)c2c(C)c(C(=O)N(CC)CC)sc21	inconclusive: 39.8 µM [activator, single point]	–
COc1ccc2[nH]cc(C(C)c3c[nH]c4ccccc34)c2c1 (stereo unspecified)	inactive	–
CCCCCCCNC(=O)C1(CC2CC(c3ccc(Cl)cc3)=NO2)CCN(C(=O)C2(C)CC2)CC1 (stereo unspecified)	inconclusive: 50.1 µM [activator, single point]	–
Cc1ccc(S(=O)(=O)Oc2ccc(C3C4=C(CCCC4=O)N(CCC(=O)O)C4=C3C(=O)CCC4)cc2Cl)cc1	inconclusive: 39.8 µM [activator, single point]	–
CC(=O)Nc1ccc(Nc2nc3ccccc3nc2NS(=O)(=O)c2ccccc2)cc1	inconclusive: 28.2 µM [activator, partial curve, poor fit]	–
Cc1ccc2[nH]c3c(c2c1)CCCC3NC(=O)CCl (stereo unspecified)	inactive	–
O=C(NCCc1c[nH]c2ccccc12)c1ccc(S(=O)(=O)NCc2ccco2)cc1	inconclusive: 31.6 µM [activator, single point]	–
Fc1ccc(Br)cc1C1C=C(c2ccc(Br)s2)Nc2ncnn21 (stereo unspecified)	inconclusive: 20 µM [activator, partial curve, poor fit]	–
Cn1c(SCc2ccccc2F)nnc1-c1cnccn1	–	inconclusive: 67% [activator]
N#CCCN(Cc1cccnc1)C(=O)c1sc2cc(F)ccc2c1Cl	inactive	–
O=C(NCc1ccc(Cl)cc1)c1cc2c(s1)-c1ccccc1SC2	inactive	–
COc1ccc(CCNC(=O)CCC(=O)N2CCN(S(=O)(=O)c3ccc(Cl)cc3)CC2)cc1OC	inconclusive: 50.1 µM [activator, single point]	–
COc1ccc(-c2nc3c(c(SCC(=O)Nc4cccc(O)c4)n2)Cc2c(CO)cnc(C)c2O3)cc1	inconclusive: 31.6 µM [activator, single point] and inconclusive: 25.1 µM [activator, partial curve, poor fit]	–
Cc1ccc(N2CCN(C(=O)c3cn(CC4CCCCC4)nn3)C(C)C2)cc1 (stereo unspecified)	inactive	–
COc1ccc(C#Cc2ccc3c(c2)[C@H]2[C@H](CCN2S(=O)(=O)c2ccccc2F)[C@H](CO)N3C)cc1	inconclusive: 28.2 µM [activator, single point]	–

— PubChem BioAssay AID1347120 (National Center for Advancing Translational Sciences (NCATS), 2019)
